# The other results are listed elsewhere or left out.
# B1: Gal 3C (Homo sapiens), P17931 (protein)
# chain: YGAPAGPLIVPYNLPLPGGVVPRMLITILGTVKPNANRIALDFQRGNDVAFHFNPRFNENNRRVIVCNTKLDNNWGREERQSVFPFESGKPFKIQVLVEPDHFKVAVNDAHLLQYNHRVKKLNEISKLGISGDIDLTSASYTMI
# Key:
# Experiment in all cases: glycan array binding signal (z-score within array); higher = stronger binding
# Conditions in all cases: glycan notation: IUPAC condensed, linker removed
# [1] = target: Gal(b1-4)GlcNAc(b1-2)Man(a1-6)[GlcNAc(b1-2)Man(a1-3)]Man(b1-4)GlcNAc(b1-4)GlcNAc
# Method in brief: (§1)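 The binding signal is a Z-score computed within each array. Data were drawn from 3228 arrays in the Consortium for Functional Glycomics database, restricted to those with a known protein sequence. Scores were averaged over arrays of the same protein sequence at different concentrations or buffers, and over linkers, and negative values can be taken as non-binding.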
# [2] = target: Gal(b1-4)GlcNAc(b1-2)Man(a1-6)[Man(a1-3)]Man(b1-4)GlcNAc(b1-4)GlcNAc
# Method in brief: as §1
# [3] = target: Gal(b1-4)GlcNAc(b1-2)[Gal(b1-4)GlcNAc(b1-4)]Man(a1-3)[Gal(b1-4)GlcNAc(b1-2)Man(a1-6)]Man(b1-4)GlcNAc(b1-4)GlcNAc
# Method in brief: as §1
# [4] = target: Gal(b1-4)GlcNAc(b1-2)[Gal(b1-4)GlcNAc(b1-4)]Man(a1-3)[Gal(b1-4)GlcNAc(b1-2)[Gal(b1-4)GlcNAc(b1-6)]Man(a1-6)]Man(b1-4)GlcNAc(b1-4)GlcNAc
# Method in brief: as §1
# [5] = target: Gal(b1-4)GlcNAc(b1-2)[Gal(b1-4)GlcNAc(b1-4)]Man(a1-3)[GlcNAc(b1-4)][Gal(b1-4)GlcNAc(b1-2)Man(a1-6)]Man(b1-4)GlcNAc(b1-4)GlcNAc
# Method in brief: as §1
# [6] = target: Gal(b1-4)GlcNAc(b1-2)[Gal(b1-4)GlcNAc(b1-4)]Man(a1-3)[GlcNAc(b1-4)][Gal(b1-4)GlcNAc(b1-2)[Gal(b1-4)GlcNAc(b1-6)]Man(a1-6)]Man(b1-4)GlcNAc(b1-4)GlcNAc
# Method in brief: as §1
# [7] = target: Gal(b1-4)GlcNAc(b1-2)[Gal(b1-4)GlcNAc(b1-6)]Man(a1-6)[Gal(b1-4)GlcNAc(b1-2)Man(a1-3)]Man(b1-4)GlcNAc(b1-4)GlcNAc
# Method in brief: as §1
# [8] = target: Gal(b1-4)GlcNAc(b1-2)[Gal(b1-4)GlcNAc(b1-6)]Man(a1-6)[Gal(b1-4)GlcNAc(b1-2)Man(a1-3)]Man(b1-4)GlcNAc(b1-4)[Fuc(a1-6)]GlcNAc
# Method in brief: as §1
# [9] = target: Gal(b1-4)GlcNAc(b1-2)[Gal(b1-4)GlcNAc(b1-6)]Man(a1-6)[GlcNAc(b1-4)][Gal(b1-4)GlcNAc(b1-2)Man(a1-3)]Man(b1-4)GlcNAc(b1-4)GlcNAc
# Method in brief: as §1
# [10] = target: Gal(b1-4)GlcNAc(b1-2)[Gal(b1-4)GlcNAc(b1-6)]Man(a1-6)[GlcNAc(b1-4)][Gal(b1-4)GlcNAc(b1-2)[Gal(b1-4)GlcNAc(b1-4)]Man(a1-3)]Man(b1-4)GlcNAc(b1-4)[Fuc(a1-6)]GlcNAc
# Method in brief: as §1
# [11] = target: Gal(b1-4)GlcNAc(b1-3)Gal(b1-3)GalNAc
# Method in brief: as §1
# [12] = target: Gal(b1-4)GlcNAc(b1-3)Gal(b1-3)GlcNAc
# Method in brief: as §1
# [13] = target: Gal(b1-4)GlcNAc(b1-3)Gal(b1-4)Glc
# Method in brief: as §1
# [14] = target: Gal(b1-4)GlcNAc(b1-3)Gal(b1-4)GlcNAc
# Method in brief: as §1
# [15] = target: Gal(b1-4)GlcNAc(b1-3)Gal(b1-4)GlcNAc(b1-2)Man(a1-3)[Gal(b1-4)GlcNAc(b1-3)Gal(b1-4)GlcNAc(b1-2)Man(a1-6)]Man(b1-4)GlcNAc(b1-4)GlcNAc
# Method in brief: as §1
# [16] = target: Gal(b1-4)GlcNAc(b1-3)Gal(b1-4)GlcNAc(b1-2)Man(a1-3)[Gal(b1-4)GlcNAc(b1-3)Gal(b1-4)GlcNAc(b1-2)Man(a1-6)]Man(b1-4)GlcNAc(b1-4)[Fuc(a1-6)]GlcNAc
# Method in brief: as §1
# [17] = target: Gal(b1-4)GlcNAc(b1-3)Gal(b1-4)GlcNAc(b1-2)[Gal(b1-4)GlcNAc(b1-3)Gal(b1-4)GlcNAc(b1-6)]Man(a1-6)[Gal(b1-4)GlcNAc(b1-3)Gal(b1-4)GlcNAc(b1-2)Man(a1-3)]Man(b1-4)GlcNAc(b1-4)GlcNAc
# Method in brief: as §1
# [18] = target: Gal(b1-4)GlcNAc(b1-3)Gal(b1-4)GlcNAc(b1-2)[Gal(b1-4)GlcNAc(b1-3)Gal(b1-4)GlcNAc(b1-6)]Man(a1-6)[Gal(b1-4)GlcNAc(b1-3)Gal(b1-4)GlcNAc(b1-2)Man(a1-3)]Man(b1-4)GlcNAc(b1-4)[Fuc(a1-6)]GlcNAc
# Method in brief: as §1
# [19] = target: Gal(b1-4)GlcNAc(b1-3)Gal(b1-4)GlcNAc(b1-3)Gal(b1-4)GlcNAc
# Method in brief: as §1
# [20] = target: Gal(b1-4)GlcNAc(b1-3)Gal(b1-4)GlcNAc(b1-3)Gal(b1-4)GlcNAc(b1-2)Man(a1-3)[Gal(b1-4)GlcNAc(b1-3)Gal(b1-4)GlcNAc(b1-3)Gal(b1-4)GlcNAc(b1-2)Man(a1-6)]Man(b1-4)GlcNAc(b1-4)GlcNAc
# Method in brief: as §1
# [21] = target: Gal(b1-4)GlcNAc(b1-3)Gal(b1-4)GlcNAc(b1-3)Gal(b1-4)GlcNAc(b1-2)Man(a1-3)[Gal(b1-4)GlcNAc(b1-3)Gal(b1-4)GlcNAc(b1-3)Gal(b1-4)GlcNAc(b1-2)Man(a1-6)]Man(b1-4)GlcNAc(b1-4)[Fuc(a1-6)]GlcNAc
# Method in brief: as §1
# [22] = target: Gal(b1-4)GlcNAc(b1-3)Gal(b1-4)GlcNAc(b1-3)Gal(b1-4)GlcNAc(b1-2)[Gal(b1-4)GlcNAc(b1-3)Gal(b1-4)GlcNAc(b1-3)Gal(b1-4)GlcNAc(b1-6)]Man(a1-6)[Gal(b1-4)GlcNAc(b1-3)Gal(b1-4)GlcNAc(b1-3)Gal(b1-4)GlcNAc(b1-2)Man(a1-3)]Man(b1-4)GlcNAc(b1-4)[Fuc(a1-6)]GlcNAc
# Method in brief: as §1
binder,measurement,setting,value
B1,glycan array binding signal (z-score),[1],-0.308
same,glycan array binding signal (z-score),[2],-0.365
same,glycan array binding signal (z-score),[3],-0.32
same,glycan array binding signal (z-score),[4],-0.253
same,glycan array binding signal (z-score),[5],-0.345
same,glycan array binding signal (z-score),[6],-0.302
same,glycan array binding signal (z-score),[7],-0.222
same,glycan array binding signal (z-score),[8],-0.262
same,glycan array binding signal (z-score),[9],-0.314
same,glycan array binding signal (z-score),[10],-0.271
same,glycan array binding signal (z-score),[11],-0.286
same,glycan array binding signal (z-score),[12],0.127
same,glycan array binding signal (z-score),[13],-0.18
same,glycan array binding signal (z-score),[14],0.902
same,glycan array binding signal (z-score),[15],1.65
same,glycan array binding signal (z-score),[16],2.68
same,glycan array binding signal (z-score),[17],0.892
same,glycan array binding signal (z-score),[18],3.44
same,glycan array binding signal (z-score),[19],2.01
same,glycan array binding signal (z-score),[20],3.04
same,glycan array binding signal (z-score),[21],4.24
same,glycan array binding signal (z-score),[22],4.41
